Measurements: the supplement of paper PMC7826260
The list shows a part of the results. The data describe in vitro nicking of single-stranded DNA by Rep domains at 3 µM enzyme and 37 °C for 1 h; the strands have 90 letters, of which the middle is given. Values are log2 of uncut reads against the no-enzyme pool; more negative means more cut, near 0 not cut, and no call is made. The scaling is to total reads; where an enzyme cuts many sequences, the uncut ones exceed 0.

System: T1, Rep nickase domain of tomato golden mosaic virus
T1 sequence (Rep 1-124, printed without the tag): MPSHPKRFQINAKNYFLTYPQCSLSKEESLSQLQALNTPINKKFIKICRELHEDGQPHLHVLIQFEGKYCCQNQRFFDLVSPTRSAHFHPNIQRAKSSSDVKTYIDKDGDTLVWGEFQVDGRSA
Test: uncleaved DNA left, log2 of reads against the no-enzyme library (log2 ratio); higher = less cleavage (more negative = more Rep cleavage of the k-mer); sequences stand for … in CTCGTCCG…ACCGGAGA
Description: (§1)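 A pool of 90-nt single-stranded DNAs with seven random bases just before the constant AC of the nick site (name = the seven bases) was cut by 3 µM recombinant His6-SUMO-tagged Rep nickase domain (300 nM DNA, 50 mM HEPES pH 8.0, 50 mM NaCl, 1 mM MnCl2, 1 h, 37 °C, three replicates). Uncut DNA was amplified and sequenced.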

Sequence | uncleaved DNA left (log2)
AGATTCT | 0.0122
TCTCCAG | -0.131
TGTGGCT | -0.0443
CGTGCTA | 0.108
TACTCAA | 0.165
CCGATCC | 0.16
CTTTACG | -0.079
GCAATGC | -0.169
TCCCATT | -0.198
CTTGGAA | 0.0283
GAGACTT | -0.119
GCGGTTC | 0.0748
CTATCCT | -0.151
TACATTA | 0.047
GTTCCTA | 0.0995
CAGCAGT | 0.129
GCAAGCG | -0.0438
AATCCAC | -0.0166
TTTAACA | 0.112
CATCATG | -0.0359

Sequence | uncleaved DNA left (log2)
AAAGGGC | -5.66e-05
CCGTCTT | -0.589
GCTCCCT | 0.0214
GGTTTAG | 0.0731
CCGTCTA | 0.0448
TGAACCG | -0.14
TGCTATA | 0.0433
CTCCGCG | -0.106
GCGTAGA | 0.0693
TCTAGAG | 0.00352
CAAAGAC | 0.0128
TCGGTAA | -0.0479
TTTGGGC | -0.0831
GTGGGCG | 0.0471
GTCTGCA | -0.0122
TTTGCCA | 0.000914
ACGACCG | 0.00039
GTATCGC | 0.00652
ATTCCTT | 0.0194
GCTAACC | -0.0111

System: T2, Rep nickase domain of tomato yellow leaf curl virus
T2 sequence (Rep 1-136, printed without the tag): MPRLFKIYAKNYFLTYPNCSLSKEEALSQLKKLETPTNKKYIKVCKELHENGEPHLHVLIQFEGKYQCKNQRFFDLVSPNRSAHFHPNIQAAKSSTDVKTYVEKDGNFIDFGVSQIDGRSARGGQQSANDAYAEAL
Test: as above
Description: as §1

Sequence | uncleaved DNA left (log2)
AGATTCT | 0.096
TCTCCAG | -0.0827
TGTGGCT | -0.134
CGTGCTA | -0.00508
TACTCAA | 0.173
CCGATCC | -0.161
CTTTACG | -0.01
GCAATGC | -0.0371
TCCCATT | 0.214
CTTGGAA | 0.0268
GAGACTT | -0.145
GCGGTTC | 0.123
CTATCCT | -0.0302
TACATTA | -0.0142
GTTCCTA | 0.0151
CAGCAGT | 0.136
GCAAGCG | 0.00271
AATCCAC | -0.105
TTTAACA | 0.11
CATCATG | -0.0357

Sequence | uncleaved DNA left (log2)
AAAGGGC | 0.00452
CCGTCTT | -0.111
GCTCCCT | 0.0626
GGTTTAG | 0.0381
CCGTCTA | -0.0285
TGAACCG | -0.0977
TGCTATA | 0.067
CTCCGCG | -0.00788
GCGTAGA | 0.0706
TCTAGAG | 0.00444
CAAAGAC | -0.0663
TCGGTAA | -0.0791
TTTGGGC | -0.0431
GTGGGCG | -0.0244
GTCTGCA | 0.0166
TTTGCCA | 0.105
ACGACCG | -0.141
GTATCGC | 0.00196
ATTCCTT | -0.0661
GCTAACC | -0.0993

System: T3, Rep nickase domain of wheat dwarf virus
T3 sequence (Rep 1-137, printed without the tag): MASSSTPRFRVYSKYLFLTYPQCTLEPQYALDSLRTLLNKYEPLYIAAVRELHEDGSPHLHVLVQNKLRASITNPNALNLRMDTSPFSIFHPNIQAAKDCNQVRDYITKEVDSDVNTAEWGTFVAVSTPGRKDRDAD
Test: as above
Description: as §1

Sequence | uncleaved DNA left (log2)
AGATTCT | -0.143
TCTCCAG | -0.133
TGTGGCT | -0.0852
CGTGCTA | -0.0404
TACTCAA | 0.173
CCGATCC | 0.127
CTTTACG | -0.0695
GCAATGC | -0.184
TCCCATT | 0.0188
CTTGGAA | 0.0213
GAGACTT | 0.0571
GCGGTTC | 0.124
CTATCCT | -0.171
TACATTA | -0.0362
GTTCCTA | 0.0603
CAGCAGT | 0.0175
GCAAGCG | -0.123
AATCCAC | 0.00974
TTTAACA | 0.0292
CATCATG | -0.105

Sequence | uncleaved DNA left (log2)
AAAGGGC | 0.0197
CCGTCTT | -1.51
GCTCCCT | 0.135
GGTTTAG | -0.0486
CCGTCTA | -0.101
TGAACCG | -0.0951
TGCTATA | 0.0614
CTCCGCG | -0.149
GCGTAGA | 0.105
TCTAGAG | -0.0525
CAAAGAC | -0.119
TCGGTAA | -0.0463
TTTGGGC | -0.0623
GTGGGCG | -0.133
GTCTGCA | -0.04
TTTGCCA | -0.0208
ACGACCG | -0.158
GTATCGC | 0.0582
ATTCCTT | -0.0666
GCTAACC | -0.108
